{
  "source": "PubChem BioAssay (Tox21)",
  "note": "This list was built around the results that the source calls inconclusive (neither active nor inactive); the mix of calls is not that of the screen. Potencies of inconclusive entries are left out as doubtful fits. Where a structure was tested more than once in an assay, its records may differ in their call. Activity calls are given as the source filed them. The call rests on the fitted dose curve; in most records, active means well fitted cell-killing curve with a large enough effect in the repeat runs; inconclusive means weak or mixed curves, or effect the other way; inactive means flat fitted curve, though single readings scatter. Potency means the concentration at half of the fitted maximal effect; tags describe the fitted curve by direction and shape.",
  "data": [
    {"test": "qHTS assay to identify small molecule agonists of the TGF-beta/Smad signaling pathway - cell viability counter screen (AID 1346829); further: nearly all actives have a fitted effect of over 45% in size", "settings": "SBE-bla HEK293T viability, CellTiter-Glo luminescence, 5 h; series mostly up to 76.8 µM", "text": "National Center for Advancing Translational Sciences [NCATS]\nNIH Chemical Genomics Center [NCGC]\nU.S. Environmental Protection Agency [EPA]\nNational Institutes of Environmental Health Sciences [NIEHS]\nNational Toxicology Program [NTP]\nU.S. Food and Drug Administration [FDA]\nTransforming growth factor beta (TGF-beta) superfamily consists of a large number of structurally related dimeric proteins that act as hormones or local mediators in regulating a wide range of biological functions. This superfamily includes TGF-betas themselves, the bone morphogenetic proteins (BMPs) and the activins. These ligands induce oligomerization of serine/threonine receptor kinases and phosphorylate the cytoplasmic signaling molecules of Smad protein family. CellSensor SBE-bla HEK 293T cell line (Life Technologies, Carlsbad, CA), responsive to TGF-beta was used to screen Tox21 10K compound library for identification of agonists/antagonists of the Smad signaling pathway. This cell line contains a beta-lactamase reporter gene under control of the Smad binding element (SBE) stably integrated into HEK 293T cells. Also cytotoxicity of the compounds was tested in parallel by measuring the cell viability using CellTiter-Glo assay system in the same wells.\nTox21 Assay Protocol Summary:\nSBE-bla HEK 293T cells were dispensed at 4,000/well in 6 uL of assay medium into black wall/clear-bottom 1536-well plates using a Multidrop Combi (ThermoFisher Scientific, Waltham, MA) dispenser. After the assay plates were incubated at 37 C and 5% CO2 for an overnight, 23 nL of compounds dissolved in DMSO, positive controls or DMSO only was transferred to the assay plate by a Pintool station (Kalypsys, San Diego, CA). The assay plates were incubated at 37 C and 5% CO2 for 5 hr. One uL of LiveBLAzer B/G FRET substrate (Life Technologies) was added using a Flying Reagent Dispenser (FRD, Aurora Discovery, San Diego, CA) and the plates were incubated at room temperature for 2 hr. Fluorescence intensity (405 nm excitation, 460 nm and 530 nm emissions) was measured using an Envision plate reader (PerkinElmer, Shelton, CT). For cytotoxicity read, 4 uL of CellTiter-Glo reagent (Promega Corporation, Madison, WI) was added to each well of the assay plates using FRD. After 30min incubation at room temperature, the luminescence intensity was measured using ViewLux plate reader (PerkinElmer).", "values": [
      {"smiles": "OCCc1ccccc1", "Potency": "inconclusive [cytotoxic, single point]"},
      {"smiles": "c1ccc2ncccc2c1", "Potency": "inactive"},
      {"smiles": "O=C(O)c1cc(-c2ccccc2)nc2ccccc12", "Potency": "inconclusive [cytotoxic, single point]"},
      {"smiles": "CCCCC(CC)COC(=O)CCCCCCCC(=O)OCC(CC)CCCC", "note": "(stereo not given)", "Potency": "inconclusive [cytotoxic, partial curve, poor fit]"},
      {"smiles": "CC(O)Cn1cnc2c1c(=O)n(C)c(=O)n2C", "note": "(stereo not given)", "Potency": "inactive"},
      {"smiles": "OCCNCCO", "Potency": "inconclusive [cytotoxic, full curve, poor fit]"},
      {"smiles": "COc1cc(NCc2ccc3nc(N)nc(N)c3c2C)cc(OC)c1OC", "Potency": "inconclusive [cytotoxic, full curve]"},
      {"smiles": "C[Si](NC1CCCCC1)(NC1CCCCC1)NC1CCCCC1", "Potency": "inactive"},
      {"smiles": "O=C1CCCCCN1SSN1CCCCCC1=O", "Potency": "inconclusive [cytotoxic, partial curve, poor fit]"},
      {"smiles": "CCOc1cccc(-n2cc(C(=O)N3CCN(c4cc(C(=O)O)c5ccccc5c4)CC3)nc2-c2ccc(C)cc2)c1", "Potency": "inconclusive [cytotoxic, single point]"},
      {"smiles": "[Cl][Nd]([Cl])[Cl]", "Potency": "inactive"},
      {"smiles": "Oc1cc(Cl)cc(Cl)c1Cl", "Potency": "inconclusive [cytotoxic, single point]"},
      {"smiles": "CC(=O)N(CC(O)CO)c1c(I)c(C(=O)NCC(O)CO)c(I)c(C(=O)NCC(O)CO)c1I", "note": "(stereo not given)", "Potency": "inactive"},
      {"smiles": "Nc1ccc(N)c([N+](=O)[O-])c1", "Potency": "inconclusive [rising, single point]"},
      {"smiles": "Cc1ccc(S(=O)(=O)NC2CCCCC2)cc1", "Potency": "inactive"},
      {"smiles": "Fc1ccc(C(c2ccc(F)cc2)N2CCN(C/C=C/c3ccccc3)CC2)cc1", "Potency": "inconclusive [cytotoxic]"},
      {"smiles": "CCC(CC)(CC(=O)Nc1cccc(/C=C/c2nc(C3CCC3)cs2)c1)C(=O)O", "Potency": "inconclusive [rising, partial curve, poor fit]"},
      {"smiles": "Cc1nc(N)nc(N)c1-c1ccc(Cl)c(Cl)c1", "Potency": "inconclusive [cytotoxic, full curve]"},
      {"smiles": "CC(=O)OCC1=C(C(=O)O)N2C(=O)[C@@H](NC(=O)CSc3ccncc3)[C@H]2SC1", "Potency": "inconclusive [cytotoxic, partial curve, poor fit]"},
      {"smiles": "Cc1c(-c2ccc(O)cc2)n(Cc2ccc(OCCN3CCCCCC3)cc2)c2ccc(O)cc12", "Potency": "inconclusive [cytotoxic, single point]"},
      {"smiles": "CC(C)COCC(CN(Cc1ccccc1)c1ccccc1)N1CCCC1", "note": "(stereo not given)", "Potency": "inconclusive [cytotoxic]"},
      {"smiles": "N=C(N)c1ccc(OCCCCCOc2ccc(C(=N)N)cc2)cc1", "Potency": "inconclusive [cytotoxic, single point]"},
      {"smiles": "CC[C@@H]([C@H](C)O)n1ncn(-c2ccc(N3CCN(c4ccc(OC[C@@H]5CO[C@@](Cn6cncn6)(c6ccc(F)cc6F)C5)cc4)CC3)cc2)c1=O", "Potency": "inconclusive [cytotoxic, single point]"},
      {"smiles": "Cc1cn([C@H]2C[C@H](N=[N+]=[N-])[C@@H](CO)O2)c(=O)[nH]c1=O", "Potency": "inconclusive [cytotoxic, single point]"},
      {"smiles": "CCOC(=O)Oc1ccc(CCNC(=O)[C@H](CCSC)NC(C)=O)cc1OC(=O)OCC", "Potency": "inactive"},
      {"smiles": "CC(C)NC[C@@H](O)COc1ccc(CC(N)=O)cc1", "Potency": "inactive"},
      {"smiles": "COC(=O)Nc1nc2ccc(C(=O)c3cccs3)cc2[nH]1", "Potency": "inactive"},
      {"smiles": "CCOC(=O)c1ccc(C2CCC(NC[C@H](O)COc3ccc(O)c(NS(C)(=O)=O)c3)CC2)cc1", "note": "(stereo not given in full)", "Potency": "inconclusive [cytotoxic, single point]"},
      {"smiles": "Cc1ccc(S(=O)(=O)C(I)I)cc1", "Potency": "active: 49 µM"},
      {"smiles": "CCCCCCCCCCCCCCCO", "Potency": "active: 24.8 µM"},
      {"smiles": "O=C(c1ccc(O)cc1)c1ccc(Cl)cc1", "Potency": "inactive"},
      {"smiles": "CCCCCCCCCCCCCCN(CCO)CCO", "Potency": "inconclusive [cytotoxic, single point]"},
      {"smiles": "OC(Cn1cncn1)(Cn1cncn1)c1ccc(F)cc1F", "Potency": "inconclusive [rising, partial curve, poor fit]"},
      {"smiles": "CCC(C)(CCC(C)C)C(=O)[O][Sn]([CH3])([CH3])[O]C(=O)C(C)(CC)CCC(C)C", "note": "(stereo not given)", "Potency": "inconclusive [cytotoxic, single point]"},
      {"smiles": "CN(C)Cc1cc(C(C)(C)C)c(O)c(C(C)(C)C)c1", "Potency": "inconclusive [cytotoxic, partial curve, poor fit]"},
      {"smiles": "C[C@@H]1[C@H](O)[C@@H](C)/C=C/C=C\\C=C\\C=C\\C=C\\C=C\\C=C\\[C@H](O[C@@H]2O[C@H](C)[C@@H](O)[C@H](N)[C@@H]2O)C[C@@H]2O[C@](O)(C[C@@H](O)C[C@@H](O)[C@H](O)CC[C@@H](O)C[C@@H](O)CC(=O)O[C@H]1C)C[C@H](O)[C@H]2C(=O)O", "note": "(stereo in doubt)", "Potency": "inconclusive [rising, partial curve, poor fit]"},
      {"smiles": "O=C(O)CCCc1ccccc1", "Potency": "inactive"},
      {"smiles": "O=C1C=CC(=O)N1c1cccc(N2C(=O)C=CC2=O)c1", "Potency": "inconclusive [cytotoxic, single point]"},
      {"smiles": "CC/C=C\\C/C=C\\C/C=C\\CCCCCCCC(=O)OCC", "Potency": "inactive"},
      {"smiles": "CC/C=C\\C/C=C\\C/C=C\\CCCCCCCC(=O)OC", "Potency": "inconclusive [rising, partial curve]"}
    ]}
  ]
}
